Data: publication PMC6919601, “Identification of Plasmodium dipeptidyl aminopeptidase allosteric inhibitors by high throughput screening” (PLoS ONE, 2019)
“And” between values parts separate entries of the source, which are not always exact repeats. Equal values may be shown once. Screen size: about 110,000 compounds; about 230 (0.21%) showed an effect of 50% or more. Some of the results follow.

Target: DPAP1 (Plasmodium falciparum, UniProt Q8IIJ9)
Experiment: primary screen, percent inhibition; read by cleavage of a fluorogenic dipeptide substrate; higher = more effect of the substance
Set-up: species or system P. falciparum D10 trophozoite lysates; single well
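Also: 30 min substrate incubation versus DMSO and 10 µM JCP410 controls.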

Chain of DPAP1 (Q8IIJ9 whole entry, looked up): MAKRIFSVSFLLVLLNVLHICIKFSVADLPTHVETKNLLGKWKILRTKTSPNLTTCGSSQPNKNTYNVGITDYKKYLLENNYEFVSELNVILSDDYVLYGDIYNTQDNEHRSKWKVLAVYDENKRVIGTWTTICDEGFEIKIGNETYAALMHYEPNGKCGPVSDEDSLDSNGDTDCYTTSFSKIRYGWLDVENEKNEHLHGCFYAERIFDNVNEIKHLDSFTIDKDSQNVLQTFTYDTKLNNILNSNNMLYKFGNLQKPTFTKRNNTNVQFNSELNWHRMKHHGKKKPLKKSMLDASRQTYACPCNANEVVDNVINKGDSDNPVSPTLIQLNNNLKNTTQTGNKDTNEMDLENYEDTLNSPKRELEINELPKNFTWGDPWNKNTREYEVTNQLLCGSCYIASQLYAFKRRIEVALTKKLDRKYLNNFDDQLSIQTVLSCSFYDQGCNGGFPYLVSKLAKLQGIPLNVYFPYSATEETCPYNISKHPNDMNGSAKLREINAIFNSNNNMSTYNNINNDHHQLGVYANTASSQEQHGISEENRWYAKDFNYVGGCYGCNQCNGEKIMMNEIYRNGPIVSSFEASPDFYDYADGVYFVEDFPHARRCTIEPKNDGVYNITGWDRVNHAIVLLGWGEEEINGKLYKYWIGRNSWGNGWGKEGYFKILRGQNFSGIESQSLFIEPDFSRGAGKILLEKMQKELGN

SMILES | % Inhibition @ 10 uM
CC(C)CN1C(=O)[C@@H](NC(=O)OCc2ccccc2)CS1(=O)=O | -1.83%
CCCc1cc(O)n2nc(C)c(-c3ccc(Cl)cc3)c2n1 | 3.41%
O=C(NCc1cccnc1)c1ccc(Br)o1 | 2.6%
CCc1ccc(NC(=O)C2CC(=O)N(c3ccc(C)cc3)C2)cc1 (centres unmarked) | 0.206%
Cc1[nH]c2ccc(C(=O)NCCN3CCN(C)CC3)cc2c1C | 5.54%
O=C(Cn1ncc2c(=O)oc3ccccc3c21)Nc1cnc2ccccc2c1 | 4.01%
N#Cc1cccc2c3c([nH]c12)CCCC3 | -0.693%
Cc1cccc(Oc2nc3ccccn3c(=O)c2/C=C(\C#N)C(=O)NCc2ccco2)c1C | -1.43%
Cc1ccc(-c2cc3nc(C)c(-c4ccccc4)c(N)n3n2)cc1 | 3.16%
C=CCNC(=O)C1C2C=CC3(CN(Cc4ccccc4Cl)C(=O)C13)O2 (centres unmarked) | -2.26%
Cc1ccc2cc(NC(=O)CN3c4cccc5cccc(c45)S3(=O)=O)ccc2n1 | 7.87%
Cc1ccc(C(=O)N2c3ccccc3C=CC2C#N)cc1 (centres unmarked) | 0.408%
COc1ccc(NC2=C(Cl)C(=O)N(c3ccccc3)C2=O)cc1 | 2.38%
Cc1ccc2oc(C(=O)N(Cc3ccc(C)o3)C3CCS(=O)(=O)C3)c(C)c2c1 (centres unmarked) | 0.569%
CCOc1ccccc1/C=C1/S/C(=N\c2ccccc2)N(C)C1=O | 2.05%
Cc1cccc(C(=O)Nc2cc(C)c(C)cc2O)c1 | -5%
Cc1ccc(O)c(C(=O)CC(=O)c2ccccc2C)c1 | 2.79%
CC(=O)c1c(O)c(C)c(-c2ccccc2)n(-c2ccccc2)c1=O | 1.43%
CCOC(=O)N1CCN(c2c(N3CCC(C)CC3)c(=O)c2=O)CC1 | 1.93%
O=C(NCc1ccc2c(c1)OCO2)c1cccc(Cl)c1 | -5.49%
COc1ccc(C(NC(C)=O)c2nccc3cc(OC)c(OC)cc23)cc1OC (centres unmarked) | -2.19%
C1=C(c2ccccc2)CCN(c2ncnc3c2nc2n3CCCCC2)C1 | -1.87%

SMILES | % Inhibition @ 10 uM
COc1ccc(N2CCN(CC(O)COC(C)C)CC2)cc1 (centres unmarked) | 0.408% and 6.78%
CCOC(=O)N1CCN(c2cnn(-c3nc4ccccc4s3)c(=O)c2Cl)CC1 | 13.2%
CN(C)c1ccc(CN2CCN(c3cccc(C(F)(F)F)c3)CC2)cc1 | -1.86%
CS(=O)(=O)N(CC(=O)N1CCCCCC1)c1ccc(Cl)c(C(F)(F)F)c1 | 1.82%
O=C(NC1CCC(NC(=O)C2CCCO2)CC1)C1CCCO1 (centres unmarked) | 1.08%
O=C(C1CCC(CNS(=O)(=O)c2ccccc2)CC1)N1CCC2(CC1)OCCO2 (centres unmarked) | -0.971%
c1csc(-c2nnc(-c3ccccc3-n3cnnn3)o2)c1 | -1.07%
O=C(c1cccc(S(=O)(=O)N2CCOCC2)c1)N1CCOCC1 | 17%
O=C(Nc1ccc(Cl)cc1)Nc1cccc(F)c1 | -2.12%
Oc1ccccc1-c1nc(O)c2ccccc2n1 | -0.239% and 3.53%
NC(=O)c1ccc(-n2nc(C(F)(F)F)c3c2CCCC3)cc1 | 0.776%
Cc1ccc(C)n1-c1ccc(C(=O)O)c(O)c1 | 2.73%
COc1ccc(CCN(C)CC(=O)Nc2c(C)cc(C)cc2C)cc1OC | -3.55%
COc1ccc(-c2noc(N3CCCC(C(=O)NCCN4CCOCC4)C3)n2)cc1 (centres unmarked) | -3.95%
COc1cc(C)ccc1OCCSc1nc(-c2cccs2)nc2cc(=O)[nH]n12 | -0.477%
COc1ccc(OC)c(-n2nnc(-c3nc(-c4cccs4)no3)c2N)c1 | -2.72%
CCCn1c(=N)c(C(=O)OCC)cc2c(=O)n3cc(C)ccc3nc21 | 3.6%
O=C(O)/C=C\C(=O)Nc1cccc([N+](=O)[O-])c1 | -2.02%
CN(C)c1ccc(/C=C/c2nc(O)c3ccccc3n2)cc1 | 3.05%
COc1cccc(CN2CCN(Cc3cccc(F)c3)CC2)c1OC | -1.65%
CCCCN(C)CCCNC(=O)C1CCN(S(=O)(=O)N2CCC3(CC2)OCCO3)CC1 | -0.0542%
CC(=O)N1N=C2C3CCN(CC3)C2C1c1cccc([N+](=O)[O-])c1 (centres unmarked) | 3.15%

SMILES | % Inhibition @ 10 uM
CNc1ccc2c(O)cc(S(=O)(=O)O)cc2c1 | -8.13%
O=C(O)CCNS(=O)(=O)c1ccc2[nH]c(O)nc2c1 | 0.0289%
COc1cc(NC(=O)CCC(=O)O)cc2c(CCN)c[nH]c12 | -3.58%
O=S(=O)(c1ccc(Cl)cc1)N1CCN(c2ccccc2)CC1 | -4.91%
O=C(O)C#Cc1cccc2ccccc12 | 1.42%
CCCn1c2ccccc2c2cnn(CC(=O)NC(C)CCc3ccco3)c(=O)c21 (centres unmarked) | 5.24%
CCCn1c(=N)c(S(=O)(=O)c2ccc(C)cc2)cc2c(=O)n3ccccc3nc21 | 3.99%
CCCCCCSc1nnc2c(n1)[nH]c1ccccc12 | -2.35%
O=C(CSc1nc(O)c2cnn(-c3ccc(Cl)cc3)c2n1)NC1CCCCC1 | 3.53%
O=C(c1ccco1)N1CCN(C(=O)C2CC(c3ccc(F)cc3)=NO2)CC1 (centres unmarked) | -3.94%
O=S(=O)(NCC1CCCO1)c1ccc(Cl)cc1 (centres unmarked) | -6.86%
O=C(O)c1ccccc1CCc1ccc(Cl)s1 | 4.67%
CCOc1ccc(CCNS(=O)(=O)c2cccc3nsnc23)cc1OCC | -6.84%
Cc1ccc(CN2CCN(c3ccccc3Cl)CC2)o1 | -2.21%
CC1CCc2c(C(=O)NCCCc3ccccc3)csc2C1 (centres unmarked) | -1.44%
COCCN1C(=O)c2[nH]nc(-c3ccccc3O)c2C1c1ccc(O)c(OC)c1 (centres unmarked) | 0.366%
Cc1nn(-c2ccccc2)c(Cl)c1C1C(C#N)=C(N)Oc2[nH]nc(-c3ccccc3)c21 (centres unmarked) | -1.84%
CC(C)CS(=O)(=O)C1=NN2C(=N)/C(=C\c3cccc4ccccc34)C(=O)N=C2S1 | -3.58%
Cn1c(=O)c2cn(Cc3ccc(Cl)cc3)cc2n(C)c1=O | -3.96%
Cc1cc2nc(C)n(Cc3ccccc3F)c2cc1C | 0.596%
CCOC(=O)N1CCN(CN2C(=O)/C(=N\c3ccc(C)cc3)c3ccccc32)CC1 | 1.02%
